The campaign covered roughly 220,000 compounds. About 16,000 (7.3%) were called active. Inconclusive means that the source gave no clear call. Such entries were picked first, then a sample of the others. Calls come from the whole dose curve; as a rule, active = well fitted inhibition curve with a large enough effect (not every such curve was filed as active); inconclusive = small, poorly fitted or top-dose-only effect, or another doubt; inactive = no such curve, though single readings can be large or run the other way. Potencies beside an inconclusive call are fits to weak or partial responses and may not hold up.
These compounds were tested against Aldehyde dehydrogenase 1A1 (Homo sapiens) (UniProt P00352) (assay: qHTS Assay for Inhibitors of Aldehyde Dehydrogenase 1 (ALDH1A1)). Conditions: Purified ALDH1A1, NADH fluorescence, propionaldehyde substrate; series mostly up to 75.3 µM.
Chain of UniProt P00352 (P00352 whole entry, looked up): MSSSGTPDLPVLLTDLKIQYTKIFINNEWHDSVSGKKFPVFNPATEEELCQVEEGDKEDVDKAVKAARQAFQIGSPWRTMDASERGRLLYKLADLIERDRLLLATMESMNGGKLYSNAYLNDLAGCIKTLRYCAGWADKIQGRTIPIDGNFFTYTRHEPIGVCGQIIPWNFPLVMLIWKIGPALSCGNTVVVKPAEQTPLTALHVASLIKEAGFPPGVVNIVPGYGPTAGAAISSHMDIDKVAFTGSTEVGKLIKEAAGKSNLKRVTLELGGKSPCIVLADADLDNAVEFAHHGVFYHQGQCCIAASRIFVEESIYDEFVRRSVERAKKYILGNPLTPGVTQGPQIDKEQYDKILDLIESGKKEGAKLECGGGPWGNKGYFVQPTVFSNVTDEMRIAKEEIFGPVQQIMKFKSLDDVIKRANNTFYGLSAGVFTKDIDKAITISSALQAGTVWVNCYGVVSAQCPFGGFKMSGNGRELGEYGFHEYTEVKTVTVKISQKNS
Potency is the fitted concentration of half-maximal effect; tags give direction and shape of the fitted curve.

Potency, inconclusive:
CN1CCN(C(=O)C2=C[C@@H](C(C)(C)C)C[C@@H](OCc3ccc(CO)cc3)O2)CC1 35.5 µM [inhibitor, partial curve]
COCCn1c(=O)cnc2cnc(Oc3ccc(OC)cc3)nc21 25.1 µM [inhibitor, single point]
Cn1nnnc1SCC(=O)N1CCOCC1 25.1 µM [inhibitor, single point]
CN(C)c1ccc(S(=O)(=O)N(C)C)cc1[N+](=O)[O-] 11.9 µM [inhibitor, partial curve]
CC(=O)c1cc(F)c(N2CCN(C(=O)COc3ccc(F)cc3)CC2)cc1C 28.2 µM [inhibitor, single point]
O=c1[nH]c2ccc(Cl)cc2c(-c2ccccc2)c1N1CCN(c2ccccn2)CC1 35.5 µM [inhibitor, single point]
CCc1ccccc1N(CC(=O)NCCSCc1ccco1)S(C)(=O)=O 39.8 µM [inhibitor, single point]
CCCc1ccc(C(=O)NNc2ccc(F)cc2)cc1 35.5 µM [inhibitor, single point]
Cc1cccc(N(C)C(=O)CCS(=O)(=O)c2cccc3nonc23)c1 35.5 µM [inhibitor, single point]
C=CCNC(=S)NNC(=O)COc1ccc(Cl)cc1Cl 37.7 µM [inhibitor, single point]
COc1ccc2[nH]c(=O)c(C(c3nnnn3C3CCCC3)N3CCN(Cc4ccc5c(c4)OCO5)CC3)cc2c1 (centres undefined) 28.2 µM [inhibitor, partial curve]
Cc1ccc2oc(-c3ccc(NC(=O)c4cccnc4)cc3)nc2c1 39.8 µM [inhibitor, single point]
O=C(Nc1ccccc1)Nc1ccccc1C(=O)NCC1CC1 39.8 µM [inhibitor, single point]
COc1ccccc1NS(=O)(=O)c1cc([N+](=O)[O-])ccc1N/N=C/c1sc(N2CCOCC2)nc1-c1ccccc1 20 µM [inhibitor, partial curve]
COc1ccc(CN(CC2CCCO2)S(=O)(=O)c2ccc(-n3cnnn3)c(OC)c2)cc1 (centres undefined) 11.2 µM [inhibitor, partial curve]
CC(=O)OCC(CCn1cnc2cnc(N)nc21)COC(C)=O 39.8 µM [inhibitor, single point]
O=C(Nc1nc(-c2cc3ccccc3oc2=O)cs1)c1ccco1 22.4 µM [inhibitor, partial curve]
COc1ccc(NC(=O)[C@H](COCc2ccccc2)NC(=O)OC(C)(C)C)cc1 39.8 µM [inhibitor, single point]
O=C(CSc1nccn1-c1ccccc1)c1ccc(Br)cc1 22.4 µM [inhibitor, partial curve]
COC(=O)c1cn(-c2ccccc2)nc1-c1ccncc1 39.8 µM [inhibitor, single point]
COc1ncc2ncc(=O)n(C[C@H]3CCCO3)c2n1 35.5 µM [inhibitor, single point]
COC(=O)C1=C(O)/C(=C\c2cc(C)n(-c3ccccc3C)c2C)N=C1C 31.6 µM [inhibitor, single point]
CC(=O)N1CCc2cc(C(=O)CN3CCCN(Cc4ccc(F)cc4)C3)ccc21 28.2 µM [inhibitor, single point]
Cc1[nH]c2ccc(F)cc2c1CCN(Cc1cccnc1)C(=S)Nc1ccc(F)cc1 25.1 µM [inhibitor, partial curve]
C=CCn1c(=N)c(C(=O)OC)cc2c(=O)n3cccc(C)c3nc21 5.62 µM [inhibitor, partial curve]

Potency, inactive:
COc1ccc(C2(CNC(=O)c3cccc([N+](=O)[O-])c3)CCOCC2)cc1
COc1cc2c(cc1OC)CN(Cc1cc(OC)c(O)c(OC)c1)CC2
CCOc1cc(N2CCOCC2)c(OCC)cc1NC(=O)c1ccccc1C
Cc1cc(N2CCN(C)CC2)nc2ccc(NC(=O)c3ccccc3F)cc12
COc1ccc(CCNC(=O)c2ccc(CN3CCC(Cc4ccccc4)CC3)cc2)cc1
CCOc1ccc(C(C)NC(=O)C2CCCC2)cc1 (centres undefined)
O=C(Nc1nnc(-c2ccc3c(c2)OCCO3)o1)C1CCCCC1
COc1ccc(-c2nc3cncnc3n(-c3ccccc3)c2=O)cc1
CC(c1ccccc1)n1cnc2ccccc21 (centres undefined)
CC(C)CNC(=O)c1cc([N+](=O)[O-])ccc1N1CCCCC1
COc1ccc(C(=O)Nc2ccc(S(=O)(=O)NCc3ccco3)cc2)cc1OC
O=S(=O)(Nc1ccc(-n2cccc2)cc1)c1ccccc1
CNC(=O)CS(=O)CC(=O)Nc1cc(OCCOC)c(Cl)cc1Cl (centres undefined)
c1ccc(CCNc2ncnc3sccc23)nc1
CCCCOC(=O)Cn1c(=O)n(CC(=O)OCCCC)c2cc(C)ccc21
O=C1C2C3c4ccccc4C(c4ccccc43)C2c2nc3ccccc3n21 (centres undefined)

Potency, active:
O=C1c2ccccc2C(O)(c2ncc[nH]2)N1CCc1ccccc1 (centres undefined) 14.1 µM
COc1ccc(C2NC(=O)NC(O)(C(F)(F)F)C2C(=O)c2ccc(C)cc2)cc1 (centres undefined) 17.8 µM
CCOc1cccc(C(=O)NC(=S)Nc2ccccc2)c1 17.8 µM
CCOc1ccc(N(CC(=O)Nc2ccc(OC)cc2)S(C)(=O)=O)cc1 17.8 µM
COc1nc2ccccc2c(=O)n1OCC(C)C 14.1 µM
S=C(NCc1ccccn1)Nc1ccc(Cl)c(Cl)c1 11.2 µM
CCN(CC)S(=O)(=O)c1ccc(N2CCOCC2)c(NS(=O)(=O)c2cc(C(C)(C)C)ccc2C)c1 14.1 µM
Cc1cc(C(=O)N/N=C/c2ccc(N(C)C)cc2)c2ccccc2n1 35.5 µM
